In paper PMC12136788:
Some of the results follow.

B1: chr1:162783069:162783171:+|3pUTR|ENSG00000162733|unk|total|mutant (ssRNA)
RNA: GGGAGUUCUACAGUCCGACGAUCUGAAAGCCGUUCAAAUUUGAAUCCGAAGAAUGAAGCCCGGACUUAUUUGGAAAAGGAGACCGAAAAAAAAUGAUCAGAAACUGUGGGGCCUUAUUACCUUUGCAGUAAGUUAUCUUCUUCCAACAGAGGAUUGAGCAUCA
B2: chr12:125025615:125025697:+|3pUTR|ENSG00000184992|msi1_unk|total|mutant (ssRNA)
RNA: GGGAGUUCUACAGUCCGACGAUCGGACACAUUCCCAGAAGAGCGGAAAGAUCAUUGACGUGGAACUACACACGAAGUGUAAUCCGUGGGGGAAAAAAUAUUUUUUAAACAAAGGAUAUAACCAUAUUCCGUUGUACAGUAAGACAACAGAGGAUUGAGCAUCA
B3: chr17:34942483:34942643:-|CDS|ENSG00000132141|control|control|control (ssRNA)
RNA: GGGAGUUCUACAGUCCGACGAUCGAAAGAGAAAUUGGUAAAAGCUGAAAGAAAAUUUAUUGAAGAUAGAGUACAAAAAAUAAUAGACCUGAAGGACAAAGUCUGUGCUCAGUCAAAUAAAGGAUUUGUCGUCAUUAAUCAAAACAACAGAGGAUUGAGCAUCA
B4: chr2:223975255:223975490:-|3pUTR|ENSG00000135919|msi1|FALSE|bound_elsewhere (ssRNA)
RNA: GGGAGUUCUACAGUCCGACGAUCUUUAAAUUCUUUUCCCCCAUCCCCCUCCAAAGUCUUGAUAGCAAGCGUUAUUUUGGUGGUAGAAACGGUGAAAUCUCUAGCCUCUUUGUGUUUUUGUUGUUGUUGUUGUUGUUGUUUUAUCAACAGAGGAUUGAGCAUCA
B5: chr13:30205178:30205279:-|3pUTR|ENSG00000102781|msi1|total|mutant (ssRNA)
RNA: GGGAGUUCUACAGUCCGACGAUCUUGGCAGUUUCUCUAACGACUCUGUACCGCUUCUGGCUUCUACUACUGAAACAAGAGUUCCGAUCACUGAUGGAGAGGCACCGUAAUCUGUUUGUGCUUUGGAAAAAUAUAUAAAAGUUUCAACAGAGGAUUGAGCAUCA
B6: chr7:56058368:56058516:+|CDS|ENSG00000146731|unk|FALSE|unique (ssRNA)
RNA: GGGAGUUCUACAGUCCGACGAUCUACAAGAGUGCAGAAGAGAGAGAAAAACUCGUGAAAGCUGAAAGAAAAUUCAUUGAAGAUAGGGUUAAAAAAAUAAUAGAACUGAAAAGGAAAGUCUGUGGCGAUUCAGAUAAAGGAUUUCAACAGAGGAUUGAGCAUCA
B7: chr11:126202095:126203417:-|three_prime_utr|ENSG00000165526|control|control|control (ssRNA)
RNA: GGGAGUUCUACAGUCCGACGAUCAAGGUAAAGCAACUCAGCUGCUACAGGGCUUUUAAUGGAGAACAAAGUCUAUUUACUGAUAGUUUGGCUGCACUGUGGAAAAGCCUGCUGGAAGUCUCCCUGCCGUGGGCUCUCAUUGCCCAACAGAGGAUUGAGCAUCA
B8: chr10:110135209:110135310:+|3pUTR|ENSG00000148700|msi1|FALSE|bound_elsewhere (ssRNA)
RNA: GGGAGUUCUACAGUCCGACGAUCCUCUCUAUUGGAAGAUUUUUUUAAUGUUCUACAUCAUUUAUGUUGUAUUACAAUGUAUGUAGAAAUAGUAACCUGUGAACUAUGCUUUUCCAUAACUUUUUAAAAAUAUAUAUAUCUAAACAACAGAGGAUUGAGCAUCA
B9: chr8:17969608:17969733:+|CDS|ENSG00000078674|unk|FALSE|unique (ssRNA)
RNA: GGGAGUUCUACAGUCCGACGAUCUUCUAAUUUUGGAGAUUUUUCUCAGAAUAUCUCUACACCCAGUGAACAGCAGCAACCCUUAGCCCAGAAUUCUUCAGGAAAAACAGAAUAUAUGGCUUUUCCAAAACCUUUUGAAAGCAGCAACAGAGGAUUGAGCAUCA
B10: chr5:136988535:136988636:-|CDS|ENSG00000152377|msi1|total|mutant (ssRNA)
RNA: GGGAGUUCUACAGUCCGACGAUCGGAAAGCAUCAGGCUUGGUGGCAGCUGAGAUAUGCCUUUUGUUUGGCAGGGUUUGACACCCGCAUCCUGCCCAUCUGCAAGGACUCCCUGGGCUGGAUGUUCAACAAGUUGGACAUGAACCAACAGAGGAUUGAGCAUCA
B11: chr2:1632960:1633155:-|3pUTR|ENSG00000130508|msi1|total|mutant (ssRNA)
RNA: GGGAGUUCUACAGUCCGACGAUCGUCCAUUUUUCCGGUAUCCGAUAUGGCAGAAAAACCAUUUCCACUAUGCAAAGUUCUUUCCGACGUCAGUGAAAAUCAACUCUCAUACCUCAUGGUCUCUCUUUAAUUGACCAAAACCUUCAACAGAGGAUUGAGCAUCA
B12: ENSG00000121579:stop:overlap|stop_codon|ENSG00000121579|stop_codon|NA|stop_codon (ssRNA)
RNA: GGGAGUUCUACAGUCCGACGAUCUCAGCUACAAUGACAAGUUCUACAAGGAUGUGCUGGAGCCUAUUUCAAUGAUAUUGCUGUAGGUGCAGUAUGCUGUAGGGUGGAUCAUUCACAGAAUCAGAAGAGACUUUACAUCAUGACCAACAGAGGAUUGAGCAUCA
B13: chr11:4094911:4095012:+|5pUTR|ENSG00000167325|unk|total|mutant (ssRNA)
RNA: GGGAGUUCUACAGUCCGACGAUCAGCAGCGCCUGGAACCUAACCCUUCCCACUCUGUCACCUUCUCGAUCCCGCCGGCGCUUCCGAGCCGCAGUCCAGUCUUGGAUCCUUCAGAGCCUCAGCCACCCGCUGCGAUGCAUGUGACAACAGAGGAUUGAGCAUCA
B14: chr6:158785413:158785514:-|CDS|ENSG00000092820|msi1|total|mutant (ssRNA)
RNA: GGGAGUUCUACAGUCCGACGAUCGAGCUCAUCCAGGACAUCACCCAGAAACUUUUCUUCCUCCAAGUGAAGGAAGGAAUCCUCCGCGAUGAGAUCUACUGCCCCCCUGAGACUGCCGUGCUCUUGGGGUCCUACGCUGUGCAGCAACAGAGGAUUGAGCAUCA

target: MSI1 full-length (mouse, UniProt Q61474 1-362); assay: nsRBNS (natural sequence RNA bind-n-seq); RBNS binding buffer (assumed for nsRBNS): 25 mM Tris pH 7.5, 150 mM KCl, 3 mM MgCl2, 0.01% Triton X-100, 500 ug/ml BSA, 20 U/ml SUPERase-In, 4 C; UNK is unkempt and MSI1 is Musashi-1; names of the RNAs are library labels; protein concentration not given here; high values mean tight binding
Sequence of UniProt Q61474 (Q61474 whole entry): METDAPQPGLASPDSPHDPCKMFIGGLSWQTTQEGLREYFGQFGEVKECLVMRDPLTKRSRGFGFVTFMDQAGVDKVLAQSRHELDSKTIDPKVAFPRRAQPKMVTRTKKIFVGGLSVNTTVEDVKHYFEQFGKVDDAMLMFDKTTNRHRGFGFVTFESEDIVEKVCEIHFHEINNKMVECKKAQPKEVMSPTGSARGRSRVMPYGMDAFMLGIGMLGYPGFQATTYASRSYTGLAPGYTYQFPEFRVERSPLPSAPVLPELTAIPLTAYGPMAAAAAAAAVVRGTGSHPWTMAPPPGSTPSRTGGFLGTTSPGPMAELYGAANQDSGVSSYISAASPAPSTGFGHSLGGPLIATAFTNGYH

| Binder | binding signal [enrichment R] |
| --- | --- |
| B1 | 0.267 |
| B2 | 0.405 |
| B3 | 1.05 |
| B4 | 3.89 |
| B5 | 0.409 |
| B6 | 3.04 |
| B7 | 0.442 |
| B8 | 15.2 |
| B9 | 0.487 |
| B10 | 0.511 |
| B11 | 0.353 |
| B12 | 0.48 |
| B13 | 0.592 |
| B14 | 0.403 |
